Some of the results follow. Cleavage of a single-stranded DNA pool by Rep nickase domains was read by sequencing (3 µM enzyme, 1 h, 37 °C); shown is the middle of each 90-letter strand. The score is log2 (uncut reads / reads without enzyme); more negative means more cut, near 0 not cut, and no call is made. Shares of all reads are compared; uncut strands gain when others are lost, and binding without cutting may add a little.
Assays:
Test in all cases: uncleaved DNA left, log2 of reads against the no-enzyme library (log2 ratio); higher = less cleavage (more negative = more Rep cleavage of the k-mer); sequences stand for … in CTCGTCCG…ACCGGAGA
[1] = test system: T1, Rep nickase domain of Muscovy duck circovirus
T1 sequence (Rep 1-111, printed without the tag): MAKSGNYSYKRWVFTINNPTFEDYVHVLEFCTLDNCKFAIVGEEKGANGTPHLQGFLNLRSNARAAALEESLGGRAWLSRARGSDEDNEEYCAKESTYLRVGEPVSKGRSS
Procedure: (§1)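 A pool of 90-nt single-stranded DNAs with seven random bases just before the constant AC of the nick site (name = the seven bases) was cut by 3 µM recombinant His6-SUMO-tagged Rep nickase domain (300 nM DNA, 50 mM HEPES pH 8.0, 50 mM NaCl, 1 mM MnCl2, 1 h, 37 °C, three replicates). Uncut DNA was amplified and sequenced.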

[2] = test system: T2, Rep nickase domain of banana bunchy top virus
T2 sequence (Rep 1-94, printed without the tag): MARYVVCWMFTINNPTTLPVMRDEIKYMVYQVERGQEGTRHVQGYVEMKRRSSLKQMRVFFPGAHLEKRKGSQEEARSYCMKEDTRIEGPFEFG
Procedure: as §1

[3] = test system: T3, Rep nickase domain of cabbage leaf curl virus
T3 sequence (Rep 1-116, printed without the tag): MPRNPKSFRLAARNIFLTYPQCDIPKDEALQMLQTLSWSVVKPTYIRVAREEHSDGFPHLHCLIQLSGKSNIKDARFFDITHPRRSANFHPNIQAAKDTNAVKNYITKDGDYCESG
Procedure: as §1

[4] = test system: T4, Rep nickase domain of chickpea chlorotic dwarf virus
T4 sequence (Rep 1-124, printed without the tag): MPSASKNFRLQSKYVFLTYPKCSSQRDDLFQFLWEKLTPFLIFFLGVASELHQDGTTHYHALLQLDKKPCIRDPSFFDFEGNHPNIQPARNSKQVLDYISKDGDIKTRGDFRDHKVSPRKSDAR
Procedure: as §1

[5] = test system: T5, Rep nickase domain of faba bean necrotic yellows virus
T5 sequence (Rep 1-98, printed without the tag): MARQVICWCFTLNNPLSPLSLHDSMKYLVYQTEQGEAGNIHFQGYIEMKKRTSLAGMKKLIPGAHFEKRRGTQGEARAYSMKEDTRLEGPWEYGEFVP
Procedure: as §1

[6] = test system: T6, Rep nickase domain of maize striate mosaic virus
T6 sequence (Rep 1-117, printed without the tag): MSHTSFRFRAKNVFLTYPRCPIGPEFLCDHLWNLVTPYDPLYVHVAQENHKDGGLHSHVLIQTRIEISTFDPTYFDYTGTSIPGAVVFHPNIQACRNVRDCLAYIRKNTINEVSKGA
Procedure: as §1

[7] = test system: T7, Rep nickase domain of porcine circovirus 2
T7 sequence (Rep 2-116, printed without the tag): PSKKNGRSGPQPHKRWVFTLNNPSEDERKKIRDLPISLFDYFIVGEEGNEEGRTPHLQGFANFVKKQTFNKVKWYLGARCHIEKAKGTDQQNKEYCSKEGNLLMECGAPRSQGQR
Procedure: as §1

[8] = test system: T8, Rep nickase domain of tomato yellow leaf curl virus
T8 sequence (Rep 1-136, printed without the tag): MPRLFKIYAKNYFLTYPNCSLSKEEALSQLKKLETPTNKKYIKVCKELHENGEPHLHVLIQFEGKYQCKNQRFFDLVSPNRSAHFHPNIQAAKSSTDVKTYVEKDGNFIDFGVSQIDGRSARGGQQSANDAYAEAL
Procedure: as §1

[9] = test system: T9, Rep nickase domain of wheat dwarf virus
T9 sequence (Rep 1-137, printed without the tag): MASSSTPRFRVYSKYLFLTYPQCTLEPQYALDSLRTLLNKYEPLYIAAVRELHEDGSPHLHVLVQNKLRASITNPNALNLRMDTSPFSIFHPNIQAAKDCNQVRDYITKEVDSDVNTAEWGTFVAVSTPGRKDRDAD
Procedure: as §1

Sequence	uncleaved DNA left (log2) [1]	uncleaved DNA left (log2) [2]	uncleaved DNA left (log2) [3]	uncleaved DNA left (log2) [4]	uncleaved DNA left (log2) [5]	uncleaved DNA left (log2) [6]	uncleaved DNA left (log2) [7]	uncleaved DNA left (log2) [8]	uncleaved DNA left (log2) [9]
ACGGGAC	0.0828	-0.0149	0.8	1.71	-0.147	1.94	0.191	0.128	0.0464
CGAAGAT	-0.0086	0.0341	0.162	0.738	-0.00215	1.06	0.0997	-0.14	-0.0421
GTGCTAG	-0.0614	-0.164	-0.417	-0.23	0.0276	-0.796	0.0373	0.0452	-0.103
GTGTTTC	0.00653	0.109	0.26	0.813	0.0495	1.78	0.0266	0.0853	0.097
CGCTAGT	-0.96	-0.19	-0.206	-0.331	-0.092	-0.682	-2.71	-0.0815	-0.0766
CTTTTTA	-0.178	-0.0687	-0.0942	-1.7	-0.00246	-0.612	-0.433	0.115	-0.166
GCGCTCC	0.0115	-0.0476	0.119	0.369	-0.039	0.711	0.00747	-0.0329	-0.11
GAGCACG	0.00541	0.0101	-0.335	-0.104	-0.0567	-0.292	0.0306	-0.117	0.0473
GGAGCAC	0.0427	0.0955	0.879	1.83	-0.00112	2.13	0.264	0.0872	0.231
CAAATCA	0.0671	0.0554	-0.029	-1.75	-0.00678	-0.338	0.0183	0.0722	0.124
GAGGTCG	0.132	-0.0452	-0.421	-0.292	0.0956	-0.515	0.174	0.172	-0.0452
TCGCAAC	0.0227	-0.059	0.0406	-0.983	-0.0497	-0.52	-0.162	-0.148	-0.139
GCGTAAT	-0.532	-0.0864	0.0748	0.198	-0.281	0.541	-2.69	0.147	0.0253
TACGAGT	0.0812	0.0206	0.0167	-0.399	-0.0434	-0.0153	-0.134	-0.0164	-0.0873
ACTCTGT	0.0509	-0.132	-0.304	-0.76	-0.037	-0.79	-0.0796	-0.143	-0.0651
GGGTGAG	0.176	0.137	0.781	1.84	0.0773	1.9	0.263	0.0794	0.159
GGAAACA	-0.0269	-0.0165	0.728	1.54	0.0231	1.98	0.115	0.00951	0.0266
TTGCCCC	-1.09	-0.489	-0.165	-0.514	-0.0183	-0.688	-2.24	0.0537	0.0675
GATACCA	-0.0179	0.0473	0.115	0.528	0.0755	0.771	0.133	-0.102	0.131
CTTAAGA	0.0564	0.05	-0.109	-0.268	0.0272	-0.996	0.211	0.0996	0.0992
ATTTCGC	0.123	-0.0527	-0.611	-0.761	0.035	-1.12	0.17	0.0557	-0.0159
CAATTGA	0.0785	-0.0308	-0.593	-0.693	0.0699	-1.2	-0.0478	0.0707	0.0122
TGAAGCG	0.0105	0.0328	-0.727	0.268	0.0845	-0.841	0.193	0.0682	-0.02
GCACCGC	-0.108	0.0474	-0.244	-0.161	0.061	-0.475	0.0519	0.00466	0.0321
AGGGACC	0.0122	0.172	0.634	1.63	-0.0217	1.88	0.173	0.134	0.124
TCATAAA	0.00065	-0.0941	-0.00284	-0.144	0.132	-0.683	0.122	0.0252	-0.0236
CCGTAAA	0.117	-0.0324	-0.00298	-0.153	-0.00655	-0.436	-0.202	-0.0604	0.0609
TCCGCAT	-0.133	-0.219	-0.0164	-0.282	-0.302	-0.466	-0.118	-0.0786	-0.155
TGGGGTT	0.0424	0.0513	0.476	1.23	0.133	1.89	0.214	-0.0569	0.148
GGGAAAC	0.0737	0.164	0.849	2.09	-0.0469	2.24	0.211	0.142	0.17

Source: the supplement of paper PMC7826260
